The values below come from ChEMBL document CHEMBL1201862, “PubChem BioAssay data set” (2004).

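Growth conditions: 96-well plates. Treatment: test compound, 48 hours, 5 concentrations. Analysis: linear interpolation between bracketing concentrations; unreached endpoints set to highest concentration. Abbreviation: GI50, concentration required for 50% inhibition of growth.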 Active and inactive are the calls of the source. No stated cut-off is given here; in the data, active = GI50 up to about 1.1 µM and inactive = higher.

This assay deals with NCI-H322M. The experiment in a line: NCI anticancer screen, dose series, 48 h.
On to `CN(C)c1ccc(C=c2c3cc(O)ccc3n3c2cc(-c2ccccc2)[n+]3C)cc1`, for which the GI50 was inactive: 2.69 µM.
Next, `Cc1c(C)c(C)c(CC2(C)CSC2)c(CC2(C)CSC2)c1C`: inactive: > 100 µM.
Next, `C[C@]12CC[C@@H]3c4ccccc4CC[C@H]3[C@@H]1CC[C@@H]2O`: inactive: > 100 µM; `N#Cc1nnn(-c2ccccc2)c1O`: inactive: > 100 µM.
Next, `CC(Br)CN(CC(C)Br)c1ccc2c(c1)Cc1ccccc1-2` (centres undefined): inactive: 15.3 µM; `C/C(=N\NC(=S)N1CCCCCC1)c1cccc2cccnc12`: active: 0.818 µM.
Take `O=c1onc2c3ccccc3ncn12`: the GI50 was inactive: > 100 µM.
Regarding `Cc1cccc(N2C(=O)C(=O)C(c3nc4ccccc4s3)/C(=N/NC(=S)NN)C2=O)c1C` (centres undefined), the GI50 was inactive: > 100 µM.
The result for `NC(=S)N/N=C(/CCN1CCCC1)CC(C1=C(O)C2=CCCCC2OC1=O)c1ccccc1` (centres undefined) reads inactive: > 100 µM; that for `CCOc1cc(NC(C)=O)ccc1C(=O)NNC(=O)c1ccccc1OC(C)=O`, inactive: 8.57 µM.
Next, `O=[N+]([O-])c1ccc(/C=N/CC2CCCN3CCCCC23)cc1` (centres undefined): inactive: > 100 µM.
The result for `CCC(NC(C)c1ccccc1)C(O)c1ccc(OCc2ccccc2)c(OCc2ccccc2)c1` (centres undefined) reads inactive: 14.4 µM; that for `CCOC(=O)c1nc2cc(C(F)(F)F)ccc2nc1Oc1ccc(C(=O)OC)cc1`, inactive: > 100 µM.
`CCOC(=O)C1=C(NC(C)(C)C)OC/C1=N\NC(=O)Cc1ccccc1`: the GI50 is inactive: > 100 µM.
Regarding `OC1CCOc2ccccc21` (centres undefined), the GI50 was inactive: > 100 µM.
Consider `CSc1ccc(N2C(=O)C3c4[nH]c5ccccc5c4C4CCC(C(C)(C)C)CC4C3C2=O)cc1` (centres undefined), for which the GI50 is inactive: 17.3 µM.
Next, `O=C1OC(C2Cc3ccc4c(c3C2=O)CCCC4)c2ccccc21` (centres undefined): inactive: 45 µM; `NC1=NNC2(C(N)=N1)c1ccccc1-c1ccccc12`: inactive: > 10 µM.
Turning to `Cc1cc2c(cc1-c1cc3c(cc1C)C(C(C)C)=C(O)C(=O)/C3=C\Nc1cccc3c(N)cccc13)/C(=C/Nc1cccc3c(N)cccc13)C(=O)C(O)=C2C(C)C`, the GI50 is inactive: > 100 µM.
Next, `CCN(CC)CCCNc1nncc2c(C)c3[nH]c4ccc(OC)cc4c3cc12`: active: 0.418 µM.
The result for `COc1cccc([C@@]2(O)c3c(ccc(O)c3OC)[C@H]2OC)c1OC` reads inactive: 41.1 µM; that for `c1ccc(-c2cc(-c3ccncc3)cc(-c3ccncc3)n2)cc1`, inactive: > 100 µM.
Next, `c1cc(-c2ccc(-c3ccc(C4=NCCCN4)cc3)o2)ccc1C1=NCCCN1`: inactive: > 100 µM; `O=C1/C(=C\c2ccc(Cl)cc2Cl)Sc2scc(-c3cccc([N+](=O)[O-])c3)[n+]21`: inactive: 17.7 µM.
`CC1=NN(c2nc(N)nc(NS(=O)(=O)c3cc(C)c(Cl)cc3S)n2)C(C)(C)C1`: the GI50 was inactive: > 10 µM.
Turning to `CC(/C=C/c1ccccc1)=N\NC(=S)N/N=C(C)/C=C/c1ccccc1`, the GI50 was inactive: 63.2 µM.
With `C[N+]1(CCC(=O)c2ccco2)CC2CCC(CC2)C1` (centres undefined), the GI50 is inactive: > 100 µM.
The result for `O=c1c2ccccc2nc2sc(/N=C/C=C/c3ccccc3)nn12` reads inactive: > 100 µM.
The result for `O=C1CC2(CCC(O)(c3ccc4ccccc4c3)C(C(=O)c3ccc4ccccc4c3)C2)C(=O)c2ccccc2N1` (centres undefined) reads inactive: > 100 µM; that for `CC(C)C1CC(CO)(CNc2cc(Cl)nc(N)n2)C1` (centres undefined), inactive: > 100 µM.
The result for `CCOC(=O)C(=CN1CCNC1=S)C(=O)OCC` reads inactive: > 100 µM.
With `CC/C(=N/O)C(C)C(=O)CCC(=O)Nc1ccc(Cl)cc1` (centres undefined), the GI50 was inactive: > 100 µM.
Turning to `COc1ccc2[nH]c3c(c2c1)CCN(C)CC3`, the GI50 was inactive: > 100 µM.
The result for `Nn1c(-c2ccccc2)nn(C(=O)c2ccccc2)c1=O` reads inactive: > 100 µM; that for `COc1cc(C(c2ccccc2)N2C(=O)CC[C@H]2C(=O)O)cc(OC)c1OC` (some centres undefined), inactive: > 100 µM.
Turning to `CC(C)OC(=O)OCSc1ccccc1/N=C/c1cccc([N+](=O)[O-])c1`, the GI50 is inactive: > 10 µM.
Next, `COc1ccc(C(=O)/C=C2\Nc3cccnc3N\C2=C/C(=O)c2ccc(OC)cc2)cc1`: inactive: 32.6 µM; `COc1cc(C2SCC(=O)N2c2ccc(-n3c(-c4ccccc4)nc4ccccc4c3=O)cc2)cc(OC)c1OC` (centres undefined): inactive: > 100 µM; `CN(CCN(C)C(=S)NN)C(=S)NN`: inactive: > 100 µM.
Next, `COC(=O)C(=O)C(C(C)=O)C(=O)NCc1ccc(OC)c(OC)c1` (centres undefined): inactive: > 100 µM.
Next, `COC(=O)C(=O)C(C(=O)C(=O)Nc1ccccc1OC)c1nc2ccc([N+](=O)[O-])cc2nc1O` (centres undefined): inactive: 79.8 µM; `C[N+](C)(C)c1ccc(C(N)C(=O)O)cc1` (centres undefined): inactive: > 100 µM; `CCOC(=O)c1c(-c2ccccc2)[nH]c2ccc(Cl)cc2c1=O`: inactive: 43.2 µM.
As to `CC(C)N(CCCNc1c2ccccc2nc2cccc([N+](=O)[O-])c12)C(C)C`, the GI50 is active: 0.0285 µM.
The result for `CCN(CC)C(=S)Oc1cc2oc(=O)cc(C)c2cc1Cl` reads inactive: > 100 µM; that for `Cc1cc2c(cc1CO)N1Cc3cc(C)c(CO)cc3N(C2)C1`, inactive: > 100 µM.
Next, `COc1ccc2cccc(C(=N)c3ccc(C)c4c3CCC4)c2c1`: inactive: 11.9 µM; `CCOC(=O)/C(=C\c1cccs1)P(=O)(OCC)OCC`: inactive: 27.9 µM; `CCCC(CC)c1cc(O)c(O)cc1C(CC)CCC` (centres undefined): inactive: > 10 µM.
On to `CN(C)/C=N\c1c(Br)cc(Br)c2nonc12`, for which the GI50 is inactive: > 100 µM.
As to `Cn1c2c(c3ccccc31)C1CCCCCCC1C1C(=O)OC(=O)C21` (centres undefined), the GI50 is inactive: 65.6 µM.
The result for `N#Cc1ccc(C2Oc3ccc(Cl)cc3C=C2[N+](=O)[O-])cc1` (centres undefined) reads inactive: 1.82 µM; that for `COC1C=COC2(C)Oc3c(C)c(O)c4c(c3C2=O)/C(=N/C2CCC(O)OC2C)C=C(NC(=O)/C(C)=C\C(=O)C2CC2C(O)C(C)C(O)C(C)C(OC(C)=O)C1C)C4=O` (centres undefined), inactive: 3.07 µM; that for `CCOC(=O)C1C(=O)CC(O)(OCC)C(C(=O)OCC)C1c1ccc(OC)cc1` (centres undefined), inactive: > 100 µM.
The result for `O=C(/C=C/C=C/c1ccccc1)c1ccccc1` reads inactive: 17.6 µM; that for `CC1C(=O)C23OC[C@@]1(C)C1(O)CC[C@@H](C)[C@]21CC3=O` (some centres undefined), inactive: > 100 µM.
Next, `CCC1CN2CCc3c([nH]c4ccccc34)C2C[C@@H]1CC(=O)N(C)C` (some centres undefined): inactive: > 100 µM; `OC1(c2ccc(Cl)cc2)c2ccccc2-c2nc3ccccc3n21` (centres undefined): inactive: > 100 µM.
`CC(=O)O[C@H]1C(=O)[C@@]2(C)[C@H]([C@H](OC(=O)c3ccccc3)[C@]3(O)C[C@H](OC(=O)[C@H](O)[C@@H](NC(=O)c4ccccc4)c4ccccc4C)C(C)=C1C3(C)C)[C@]1(OC(C)=O)CO[C@@H]1C[C@@H]2O`: the GI50 is inactive: 1.32 µM.
